± gives the uncertainty stated by the source. Shown are siRNA guide strands that differ only in the seed, positions 2 to 7.
What was measured:
3LL = assay: cell viability relative to siNT1 control; higher = less toxic; details: concentration: 10 nM; 96 h; Mus musculus;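 further: Luminescence-based viability of cells reverse transfected in 384-well plates with lipid-complexed siRNAs built on a non-toxic 19mer backbone whose passenger strand carries 2′-O-methyl groups at positions 1 and 2, triplicates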
H460 = assay: cell viability relative to lipid-only control; HeyA8 human ovarian and H460 human lung cancer; M565 mouse liver and 3LL mouse lung cancer; siNT1 is a non-toxic control siRNA; higher = less toxic; details: concentration: 10 nM; 96 h; Homo sapiens
HeyA8 = assay: as above; details: concentration: 10 nM; 96 h; Homo sapiens
M565 = assay: as above; details: concentration: 10 nM; 96 h; Mus musculus
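Wherever cell viability relative to lipid-only control is given: reverse lipid transfection in 384-well plates, in triplicate, of duplexes on a non-toxic 19mer backbone with passenger strand 2′-O-methylated at positions 1 and 2, luminescence viability read-out.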

Sequence	cell viability (3LL) [%]	cell viability (H460) [%]	cell viability (HeyA8) [%]	cell viability (M565) [%]
UCCCGCUACAUGUAAACCAAA	93.6 ± 8.1	47.3 ± 6.8	45.6 ± 1.6	73.7 ± 25
UCUAGAAACAUGUAAACCAAA	98.7 ± 15	63.8 ± 6.5	83.4 ± 8.6	75.3 ± 13
UUGCCUUACAUGUAAACCAAA	21.4 ± 0.8	35.1 ± 7	24.1 ± 1.8	30.9 ± 1.9
UGCGGAAACAUGUAAACCAAA	87.1 ± 7.4	54.6 ± 3.4	56.6 ± 7	52.3 ± 2.1
UCAGCAUACAUGUAAACCAAA	94.1 ± 19	58.6 ± 4.2	82.2 ± 3.3	57.9 ± 6
UAUGGCGACAUGUAAACCAAA	110 ± 17	79 ± 13	94.6 ± 1.1	79.7 ± 5.3
UAUUUGUACAUGUAAACCAAA	79 ± 7.8	87.8 ± 5	88.7 ± 17	85.5 ± 22
UUCAUAGACAUGUAAACCAAA	67.6 ± 2.8	40.9 ± 7.5	80.3 ± 1.9	53.9 ± 7.5
UCUUCUUACAUGUAAACCAAA	89.1 ± 8.7	56.2 ± 1.4	88.4 ± 2.6	82.4 ± 15
UGACGCAACAUGUAAACCAAA	84.2 ± 12	86.7 ± 10	111 ± 9.8	61.8 ± 12
UGGUCUUACAUGUAAACCAAA	90.9 ± 14	29.79 ± 0.16	14 ± 2	89.9 ± 17
UAGGACUACAUGUAAACCAAA	28.3 ± 8.2	50.2 ± 11	59.5 ± 6.1	30.3 ± 6.5
UCAGCUCACAUGUAAACCAAA	74.1 ± 9.8	69.1 ± 11	89.5 ± 3.7	37.8 ± 7.7
UUGUACAACAUGUAAACCAAA	33.6 ± 5.1	68.4 ± 13	75.6 ± 3.3	61.4 ± 7.5
UAAUGCAACAUGUAAACCAAA	105 ± 20	86.6 ± 11	101 ± 8.2	105 ± 11
UGCCAACACAUGUAAACCAAA	52 ± 10	58 ± 5.5	60.4 ± 15	21.1 ± 6.7
UAUAAUUACAUGUAAACCAAA	98.5 ± 22	71 ± 5.9	99.2 ± 6.7	95.2 ± 14
UUGUAAUACAUGUAAACCAAA	51.6 ± 1.3	76.8 ± 5.2	67.9 ± 0.84	64.6 ± 7.3
UUACGGUACAUGUAAACCAAA	68.2 ± 7.4	46.7 ± 4.8	73.7 ± 7.1	101 ± 22
UAUCUGAACAUGUAAACCAAA	108 ± 10	63.1 ± 6.1	96.2 ± 9.2	102 ± 14
UUGAAGGACAUGUAAACCAAA	30 ± 5.6	70.3 ± 7.7	70.8 ± 10	57.2 ± 5.5
UCCACGAACAUGUAAACCAAA	103 ± 23	54.6 ± 7.1	84.7 ± 2.5	58.9 ± 4.2

Sequence	cell viability (3LL) [%]	cell viability (H460) [%]	cell viability (HeyA8) [%]	cell viability (M565) [%]
UAUGUUCACAUGUAAACCAAA	46.6 ± 4.6	59.5 ± 12	59.5 ± 5	16.9 ± 2.2
UUCUAGCACAUGUAAACCAAA	26.5 ± 7.5	37.8 ± 7	35.7 ± 5	53.4 ± 7.6
UGUUCUCACAUGUAAACCAAA	42.5 ± 19	60.1 ± 7.4	30.2 ± 2.7	33.4 ± 6.1
UUGUCAGACAUGUAAACCAAA	48.9 ± 1.5	87.8 ± 5.5	97.1 ± 17	115 ± 20
UCGGGUCACAUGUAAACCAAA	21.3 ± 2.3	14 ± 1.9	4.22 ± 0.4	16.9 ± 1.6
UGUACAAACAUGUAAACCAAA	83.4 ± 1.8	86.2 ± 14	75.9 ± 4.7	83.8 ± 4.9
UUCCCACACAUGUAAACCAAA	82.6 ± 13	40.4 ± 4.9	41.4 ± 1.6	44.5 ± 4.7
UUGUUGUACAUGUAAACCAAA	81.1 ± 7.1	51.5 ± 4	46.7 ± 6	36.4 ± 8.5
UAGAAAUACAUGUAAACCAAA	77.1 ± 3.8	62.5 ± 12	56.6 ± 2.6	62.3 ± 1
UGACACCACAUGUAAACCAAA	20.3 ± 4.7	28.4 ± 7.4	21.4 ± 0.62	4.96 ± 1.3
UUAACUCACAUGUAAACCAAA	80.6 ± 5.4	68.2 ± 1.2	94 ± 7.6	85.5 ± 14
UGCCCUGACAUGUAAACCAAA	77.4 ± 7.8	45.5 ± 5.5	78.1 ± 2.8	44.9 ± 4.7
UGUCGAGACAUGUAAACCAAA	89.8 ± 18	62.6 ± 8.7	85.9 ± 5.7	56.9 ± 8.7
UCGUAUGACAUGUAAACCAAA	90.6 ± 12	76.5 ± 7.7	87.8 ± 5.8	63.1 ± 7.7
UCUCUCUACAUGUAAACCAAA	79 ± 8.3	38.6 ± 2	61.2 ± 1.6	37.3 ± 10
UUGCUUAACAUGUAAACCAAA	94.7 ± 10	95.8 ± 9	97 ± 7.7	128 ± 29
UUCUACCACAUGUAAACCAAA	25.2 ± 1.4	31.4 ± 2.6	32.4 ± 2.9	10.6 ± 0.42
UGAUUGCACAUGUAAACCAAA	49.9 ± 4.4	56.2 ± 6.6	22 ± 2.4	54.8 ± 6.1
UAGCCUUACAUGUAAACCAAA	49.7 ± 3	52.9 ± 4	48.2 ± 7.4	16.6 ± 1.1
UUGAGGGACAUGUAAACCAAA	50 ± 3.7	37 ± 6.2	57 ± 6.1	15.5 ± 0.89
UGCUACCACAUGUAAACCAAA	55.4 ± 4.8	55 ± 4.5	20.9 ± 0.38	5.05 ± 3.6
UCUCUCAACAUGUAAACCAAA	99.4 ± 22	32.1 ± 2.1	85.5 ± 8.3	56.5 ± 17

Sequence	cell viability (3LL) [%]	cell viability (H460) [%]	cell viability (HeyA8) [%]	cell viability (M565) [%]
UCUACGGACAUGUAAACCAAA	99.7 ± 5.3	50.2 ± 1.8	88.7 ± 7	70.2 ± 16
UAUCCACACAUGUAAACCAAA	82.6 ± 14	43.8 ± 6.6	73 ± 4.6	92.7 ± 8.4
UGAUUCAACAUGUAAACCAAA	41 ± 2.8	40.4 ± 1.6	37.7 ± 7.2	13.8 ± 1.8
UGGACUAACAUGUAAACCAAA	67.9 ± 4	80.3 ± 14	85.4 ± 6.7	22.9 ± 5.6
UUACGUCACAUGUAAACCAAA	104 ± 11	106 ± 13	85.2 ± 6.3	48.1 ± 12
UCUCCCCACAUGUAAACCAAA	67.3 ± 16	50.3 ± 2	57.6 ± 4.1	24.6 ± 6.1
UGUCUCCACAUGUAAACCAAA	5.77 ± 2.9	22.9 ± 3.5	3.79 ± 0.33	9.4 ± 1.4
UACCGGCACAUGUAAACCAAA	57.4 ± 6.4	39.5 ± 2.8	19.2 ± 0.98	50.9 ± 4
UAGAUAAACAUGUAAACCAAA	89.2 ± 4.2	90.4 ± 26	91.1 ± 6.3	63.8 ± 5.4
UCAGGCGACAUGUAAACCAAA	88 ± 20	58.5 ± 8.1	91.2 ± 6.2	38.1 ± 2.7
UAACCGCACAUGUAAACCAAA	68.8 ± 3.5	66.2 ± 6.9	36.8 ± 10	15.8 ± 1.4
UUAAUCGACAUGUAAACCAAA	97.3 ± 15	81.1 ± 26	86.6 ± 1.7	105 ± 16
UCGCCGAACAUGUAAACCAAA	95.4 ± 17	90.2 ± 7	89.8 ± 3.9	71.9 ± 3.5
UCCACGUACAUGUAAACCAAA	48.7 ± 7.6	93.6 ± 16	60.3 ± 1.7	27.9 ± 6.8
UUUAGAUACAUGUAAACCAAA	87.7 ± 8.4	83.1 ± 9.7	85.2 ± 5.7	73.7 ± 11
UGCGAUAACAUGUAAACCAAA	92.2 ± 13	88.7 ± 9.1	92.3 ± 10	75.8 ± 4.5
UGCUAGUACAUGUAAACCAAA	44.3 ± 5.3	20.7 ± 0.73	24.8 ± 3.1	40 ± 2.7
UGCGGCCACAUGUAAACCAAA	17.8 ± 4.3	27.7 ± 2.5	24.9 ± 1.1	18.6 ± 8.7
UACCAUUACAUGUAAACCAAA	78.4 ± 14	56.1 ± 6.1	89.2 ± 8.7	34.4 ± 3.6
UCGCCGGACAUGUAAACCAAA	81.8 ± 10	72.2 ± 4.9	54.3 ± 3.1	51.7 ± 6.8
UAUUAUGACAUGUAAACCAAA	113 ± 18	104 ± 7.8	99.5 ± 13	99.3 ± 10
UGUCUUUACAUGUAAACCAAA	45.8 ± 7.3	53.7 ± 3.9	43.2 ± 6.2	27.5 ± 4.3

Sequence	cell viability (3LL) [%]	cell viability (H460) [%]	cell viability (HeyA8) [%]	cell viability (M565) [%]
UCGUGACACAUGUAAACCAAA	49.9 ± 9.2	29.9 ± 0.89	33.9 ± 3.3	35 ± 7.6
UACCGGGACAUGUAAACCAAA	92.8 ± 7.1	70.3 ± 9.1	73.4 ± 11	69.7 ± 22
UAUGACUACAUGUAAACCAAA	85.3 ± 8.1	49.2 ± 13	59.7 ± 6.3	97.8 ± 23
UAUGAGAACAUGUAAACCAAA	105 ± 12	67.5 ± 9.3	94.8 ± 4.3	104 ± 24
UUUUCGUACAUGUAAACCAAA	89 ± 5.2	71.4 ± 12	82.6 ± 2.8	89.2 ± 8.1
UAGACGUACAUGUAAACCAAA	20.2 ± 3.6	75 ± 23	82.8 ± 3.9	42.2 ± 2.7
UAGUUGCACAUGUAAACCAAA	12.6 ± 0.41	27.7 ± 7.5	5 ± 0.68	13.8 ± 2.1
UGAGUGCACAUGUAAACCAAA	41.4 ± 10	46.9 ± 9	62.7 ± 4.2	61.3 ± 17
UAUCAACACAUGUAAACCAAA	102 ± 4.3	65.6 ± 6.5	82.8 ± 5.9	113 ± 15
UUUACGAACAUGUAAACCAAA	102 ± 3.7	95.7 ± 9.8	98 ± 5.8	74.8 ± 8.6
UUGUCUGACAUGUAAACCAAA	55 ± 9.1	66.2 ± 8.7	91.7 ± 4.1	39.8 ± 2.7
UAUUCCAACAUGUAAACCAAA	99.2 ± 10	74.9 ± 6	91.6 ± 14	124 ± 6.3
UGGUCGUACAUGUAAACCAAA	64.4 ± 4.5	21.1 ± 3.2	31.4 ± 1.8	58.9 ± 11
UUCCCGCACAUGUAAACCAAA	74.6 ± 7.2	23.2 ± 0.28	43.1 ± 1.9	95.8 ± 11
UAGGGGCACAUGUAAACCAAA	15.5 ± 6.6	22.1 ± 3.5	6.52 ± 0.95	24.1 ± 6.1
UUCUUGCACAUGUAAACCAAA	70.5 ± 2.9	77.9 ± 10	21.8 ± 0.4	36.7 ± 5.1
UGUAAGCACAUGUAAACCAAA	32.6 ± 3.8	41 ± 2.3	53.9 ± 1.1	26.5 ± 2.4
UAACAUUACAUGUAAACCAAA	89.8 ± 6.7	61.4 ± 9.1	77.4 ± 7.5	77 ± 7
UGACAAUACAUGUAAACCAAA	93.5 ± 21	73.7 ± 3.4	74.1 ± 2.1	44.7 ± 7.3
UGCGAGUACAUGUAAACCAAA	81.2 ± 8.5	20.9 ± 1.8	13.5 ± 1.1	31.8 ± 6.7
UUUGCCGACAUGUAAACCAAA	83.9 ± 3.8	76 ± 9.9	94.4 ± 3.1	79.4 ± 7
UAGAUUGACAUGUAAACCAAA	94.3 ± 6.8	106 ± 9.8	87.9 ± 10	70.9 ± 4.4
